In PubChem BioAssay AID266 (DTP/NCI, 2004):
Records with an inconclusive call do not appear. A number of entries come with more than one value. This list holds those alone. There may be further records. The values listed for one entry repeat one measurement across runs, samples, wells, individuals or studies.

Tested on: Nude mice, LX-1 lung xenograft intrarenal, tumor weight T/C
Assay: NCI In Vivo Anticancer Drug Screen. Data for tumor model Human Lung LX-1 Xenograft (intrarenal inoculation) in NU/NU BALB/C (nude) mice
Details: endpoint: mean tumor weight change, higher = larger tumour
Description: The antitumor activity of compounds was measured in mice bearing transplantable tumors. Survival or tumor size were measured and the results are expressed as the measurement made in the treated group (T) divided by the measurement made in the vehicle treated control group (C). The tumor model used in this assay is Human Lung LX-1 Xenograft (intrarenal inoculation) in NU/NU BALB/C (nude) mice

[1] = dose: 100.0 mg/kg/injection, schedule: Q04DX003 (ip), vehicle: saline

For `O=NN(CCCl)C(=O)NCCCl`, the T/C (dose: 8.0 mg/kg/injection, schedule: Q01DX010 (ip), vehicle: saline) was -38 % of control and 1 % of control and the T/C (dose: 53.33 mg/kg/injection, schedule: Q04DX003 (ip), vehicle: saline) was -77 % of control and -10 % of control.

With `Nc1ncn(C2OC(CO)C(O)C2O)c(=O)n1` (configuration not stated) the T/C (dose: 800.0 mg/kg/injection, schedule: Q04DX003 (sc), vehicle: saline) was 1 % of control and 28 % of control.

With `CCOC(=O)N(C)N=NC` the T/C (dose: 30.0 mg/kg/injection, schedule: Q04DX003 (ip), vehicle: saline) was 23 % of control and 60 % of control.

`CN(Cc1cnc2nc(N)nc(N)c2n1)c1ccc(C(=O)N[C@@H](CCC(=O)O)C(=O)O)cc1` was tested, and the T/C (dose: 0.5 mg/kg/injection, schedule: Q01DX010 (sc), vehicle: sodium bicarbonate) was 78 % of control and 107 % of control and the T/C (dose: 2.0 mg/kg/injection, schedule: Q01DX010 (sc), vehicle: sodium bicarbonate) was 38 % of control and 94 % of control.

With `CN(C)N=Nc1cccc(C(N)=O)c1` the T/C (dose: 50.0 mg/kg/injection, schedule: Q04DX003 (sc), vehicle: Klucel (hydroxypropylcellulose) (HPC)) was -56 % of control and 6 % of control and the T/C (dose: 100.0 mg/kg/injection, schedule: Q04DX003 (sc), vehicle: Klucel (hydroxypropylcellulose) (HPC)) was -72 % of control and 2 % of control.

With `CN(C)N=Nc1ccc(S(N)(=O)=O)cc1` the T/C (dose: 400.0 mg/kg/injection, schedule: Q04DX003 (sc), vehicle: Klucel (hydroxypropylcellulose) (HPC)) was -48 % of control and 6 % of control and the T/C (dose: 800.0 mg/kg/injection, schedule: Q04DX003 (sc), vehicle: Klucel (hydroxypropylcellulose) (HPC)) was -65 % of control and -37 % of control.

With `CN(C)N=Nc1ccc(C(N)=O)cc1` the T/C (dose: 50.0 mg/kg/injection, schedule: Q04DX003 (ip), vehicle: saline with Tween-80) was 9 % of control and 49 % of control and the T/C (dose: 100.0 mg/kg/injection, schedule: Q04DX003 (ip), vehicle: saline with Tween-80) was 9 % of control and 40 % of control.

In the case of `[N-]=[N+]=CC(=O)CCC(N)C(=O)O` (configuration not stated), the T/C (dose: 0.4 mg/kg/injection, schedule: Q02DX005 (sc), vehicle: saline) is reported as 61 % of control and 207 % of control, the T/C (dose: 0.8 mg/kg/injection, schedule: Q02DX005 (sc), vehicle: saline) is reported as 46 % of control and 182 % of control and the T/C (dose: 1.6 mg/kg/injection, schedule: Q02DX005 (sc), vehicle: saline) is reported as 56 % of control and 381 % of control.

In the case of `COC(=O)c1ccc(N=NN(C)COC(C)=O)cc1`, the T/C (dose: 60.0 mg/kg/injection, schedule: Q04DX003 (ip), vehicle: Klucel (hydroxypropylcellulose) (HPC)) is reported as 63 % of control and 104 % of control, the T/C (dose: 120.0 mg/kg/injection, schedule: Q04DX003 (ip), vehicle: Klucel (hydroxypropylcellulose) (HPC)) is reported as 37 % of control and 111 % of control and the T/C (dose: 240.0 mg/kg/injection, schedule: Q04DX003 (ip), vehicle: Klucel (hydroxypropylcellulose) (HPC)) is reported as 16 % of control and 87 % of control. The T/C (dose: 480.0 mg/kg/injection, schedule: Q04DX003 (ip), vehicle: Klucel (hydroxypropylcellulose) (HPC)) was 15 % of control and 86 % of control.

In the case of `O=NN(CCCl)C(=O)NC1CCCCC1`, the T/C (dose: 8.0 mg/kg/injection, schedule: Q01DX010 (sc), vehicle: saline with Tween-80) is reported as 31 % of control and 112 % of control, the T/C (dose: 16.0 mg/kg/injection, schedule: Q01DX010 (sc), vehicle: saline with Tween-80) is reported as -86 % of control and 32 % of control and the T/C (dose: 32.0 mg/kg/injection, schedule: Q01DX010 (sc), vehicle: saline with Tween-80) is reported as -93 % of control and -55 % of control.

In the case of `Cc1c(-c2ccc(-c3ccccc3F)cc2)nc2ccc(F)cc2c1C(=O)O`, the T/C (dose: 11.5 mg/kg/injection, schedule: Q01DX009 (ip), vehicle: water) is reported as -70 % of control, 17 % of control, 24 % of control.

For `N[C@H](C(=O)O)[C@@H]1CC(Cl)=NO1`, the T/C (dose: 4.0 mg/kg/injection, schedule: Q01DX010 (sc), vehicle: saline) was 49 % of control and 171 % of control.

For `Oc1c(Cl)cc(Cl)cc1C=NCCSc1ccc(Cl)cc1`, the T/C (dose: 300.0 mg/kg/injection, schedule: Q04DX003 (ip), vehicle: Klucel (hydroxypropylcellulose) (HPC)) was 81 % of control and 110 % of control and the T/C (dose: 600.0 mg/kg/injection, schedule: Q04DX003 (ip), vehicle: Klucel (hydroxypropylcellulose) (HPC)) was 64 % of control and 99 % of control.

In the case of `CC(O)CCC(=O)c1ccoc1` (configuration not stated), the T/C (dose: 7.5 mg/kg/injection, schedule: Q01DX010 (ip), vehicle: saline) is reported as 68 % of control and 102 % of control.

With `CN(C)N=Nc1ccc(C(=O)O)cc1` the T/C [1] was -48 % of control and 1 % of control and the T/C (dose: 200.0 mg/kg/injection, schedule: Q04DX003 (ip), vehicle: saline) was -68 % of control and -26 % of control.

In the case of `CC[C@@]1(O)C(=O)OCc2c1cc1n(c2=O)Cc2cc3ccccc3nc2-1`, the T/C (dose: 40.0 mg/kg/injection, schedule: Q04DX003 (sc), vehicle: saline with Tween-80) is reported as -49 % of control and -12 % of control.

With `COC1N(C2CC(O)C(CO)O2)C(=O)NC(=O)C1(F)Br` (configuration not stated) the T/C (dose: 25.0 mg/kg/injection, schedule: Q01DX010 (sc), vehicle: saline) was 38 % of control and 89 % of control.

`CN=NN(C)C(=O)NC` was tested, and the T/C [1] was -55 % of control and 1 % of control.

With `Cn1cc(C2NC(=O)c3ccccc3N2)c2ccccc21` (configuration not stated) the T/C (dose: 600.0 mg/kg/injection, schedule: Q04DX003 (sc), vehicle: Klucel (hydroxypropylcellulose) (HPC)) was 91 % of control and 119 % of control.

With `CC1CN1C(=O)NCCCCCCNC(=O)N1CC1C` (configuration not stated) the T/C (dose: 40.0 mg/kg/injection, schedule: Q04DX003 (sc), vehicle: Klucel (hydroxypropylcellulose) (HPC)) was 17 % of control and 47 % of control.

With `C[n+]1c(-c2cccc3ccccc23)c2cc(N)ccc2c2ccccc21` the T/C (dose: 12.0 mg/kg/injection, schedule: Q04DX003 (sc), vehicle: saline) was 101 % of control and 187 % of control.

For `CC1(CO)C(O)CCC2(C)C1CCC1CC3CC12CCC3(O)CO` (configuration not stated), the T/C (dose: 100.0 mg/kg/injection, schedule: Q01DX010 (sc), vehicle: saline with Tween-80) was 45 % of control and 82 % of control and the T/C (dose: 200.0 mg/kg/injection, schedule: Q01DX010 (sc), vehicle: saline with Tween-80) was 11 % of control and 55 % of control.
